Assay results as given in PubChem BioAssay AID887 (National Center for Advancing Translational Sciences (NCATS), 2007).
The campaign covered roughly 74,000 compounds. About 1,100 (1.5%) were called active. Inconclusive means that the source gave no clear call. Such entries were picked first, then a sample of the others. Calls come from the whole dose curve; as a rule, active = well fitted inhibition curve with a large enough effect; inconclusive = small, poorly fitted or top-dose-only effect; inactive = no such curve, though single readings can be large or run the other way. No potency is given beside an inconclusive call; the fits are too rough.

target: Polyunsaturated fatty acid lipoxygenase ALOX15 (Homo sapiens) (UniProt P16050); assay: qHTS Assay for Inhibitors of 15-hLO (15-human lipoxygenase); conditions: purified 15hLO-1, xylenol orange hydroperoxide absorbance; activity change, negative = inhibition: at 57.1 µM (top of the series) unless noted; note: nearly all actives have a fitted effect of over 55% in size
Sequence of UniProt P16050 (P16050 whole entry, looked up): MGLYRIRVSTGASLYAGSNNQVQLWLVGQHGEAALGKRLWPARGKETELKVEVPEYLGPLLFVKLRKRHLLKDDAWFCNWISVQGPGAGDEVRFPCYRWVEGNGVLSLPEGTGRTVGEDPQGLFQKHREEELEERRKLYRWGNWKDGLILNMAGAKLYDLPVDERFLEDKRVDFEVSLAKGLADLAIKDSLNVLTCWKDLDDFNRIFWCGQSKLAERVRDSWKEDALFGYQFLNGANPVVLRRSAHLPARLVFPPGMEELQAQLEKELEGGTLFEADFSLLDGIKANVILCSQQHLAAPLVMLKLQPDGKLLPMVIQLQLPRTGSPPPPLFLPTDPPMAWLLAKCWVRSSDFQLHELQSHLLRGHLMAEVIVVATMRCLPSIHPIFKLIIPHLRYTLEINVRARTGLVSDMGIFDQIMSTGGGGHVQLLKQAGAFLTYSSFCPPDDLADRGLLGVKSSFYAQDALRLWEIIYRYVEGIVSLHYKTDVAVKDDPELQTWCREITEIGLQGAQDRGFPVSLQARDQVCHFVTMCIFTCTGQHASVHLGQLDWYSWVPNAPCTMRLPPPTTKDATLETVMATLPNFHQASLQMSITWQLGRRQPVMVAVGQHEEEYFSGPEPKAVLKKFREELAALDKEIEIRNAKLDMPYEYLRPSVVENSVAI
How it was run: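 Quantitative HTS in 25 mM Hepes pH 7.5 containing 0.01% Triton X-100: human 15hLO-1 at 40 nM, arachidonic acid at 50 uM, 6 min turnover. Product quantified via ferrous oxidation/xylenol orange, 573:405 nm absorbance ratio.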
% is set by controls: 0 for no effect and ±100 for the full control effect; potency is the fitted concentration of half-maximal effect; tags give direction and shape of the fitted curve.

| Compound | Potency | activity change, negative = inhibition |
| --- | --- | --- |
| Cc1cc(SCNC(=O)c2ccccc2)ncn1 | inconclusive [inhibitor, full curve, poor fit] |  |
| CCCCCCN(C(=O)CCCCCN1C(=O)NC(C2CCCCC2)C(C(=O)OCc2ccccc2)=C1C)C(C(=O)NCCCC)c1ccc(OCC(=O)OC)c(C(=O)OC)c1 (centres undefined) | inconclusive [inhibitor, partial curve] |  |
| COc1cccc(-c2ccc3ncnc(NCc4ccccc4)c3c2)c1 | inconclusive [inhibitor, single point] |  |
| CCn1c(SCC(N)=O)nnc1-c1cc2c(C)nn(-c3ccccc3)c2s1 |  | inactive: -3% |
| Cc1cc2cc(CN(Cc3ccco3)C(=O)NCc3ccccc3)c(=O)[nH]c2cc1C | inconclusive [inhibitor, partial curve] |  |
| CCC(c1nnnn1C(C)(C)CC)N(CCCO)Cc1cc2cc(C)cc(C)c2[nH]c1=O (centres undefined) | inconclusive [inhibitor, single point] |  |
| C1=C(c2ccccc2)CCN(c2ncnc3nc[nH]c23)C1 | active: 25.1 µM |  |
| CCOC(=O)CC(=O)CSc1nc2c(c(C)c1C#N)CCC2 | inconclusive [inhibitor, single point] |  |
| Cc1ccc(S(=O)(=O)Nn2c(C)ccc2C)cc1 | active: 20 µM |  |
| COc1ccc2[nH]c(=O)c(CN(Cc3ccco3)C(=O)c3ccccc3)cc2c1 | inconclusive [inhibitor, partial curve] |  |
| N#CC1=C2SCN(c3ccccc3)CN2C(=O)CC1c1c(Cl)cccc1Cl (centres undefined) | active: 3.16 µM |  |
| COc1ccc(N2CSC3=C(C#N)C(c4cc(OC)c(OC)cc4OC)CC(=O)N3C2)c(OC)c1 (centres undefined) | inconclusive [inhibitor, full curve] |  |
| COCCCN1C(=O)c2[nH]nc(-c3ccccc3O)c2C1c1cccc(Cl)c1 (centres undefined) |  | inactive: -19.3% |
| O=c1c(-c2ccc(Cl)cc2)nc2cnc(N3CCNCC3)nc2n1Cc1cccs1 | inconclusive [inhibitor, single point] |  |
| CCOC(=O)c1oc2ccc(Br)cc2c1CSc1nnc(C)s1 |  | inactive: -26% |
| O=C1CS/C(=N\C(=O)N2c3ccccc3Sc3ccccc32)N1 | inconclusive [inhibitor, single point] |  |
| COc1ccc2[nH]cc(CCNc3cc(-c4ccccc4Cl)ncn3)c2c1 | inconclusive [inhibitor, partial curve] |  |
| Cc1cccc2cc(C#N)c(N3CCCC3)nc12 | inconclusive [inhibitor, partial curve] |  |
| Cn1c(-c2ccc3c(c2)OCO3)cnc1NCc1cccc(Cl)c1 | active: 20 µM |  |
